Assay results: PubChem BioAssay (NCI)
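Each compound was tested at five concentrations against cells in 96-well plates for 48 hours. GI50 is the concentration that inhibits growth by half. TGI is the concentration that stops growth completely.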

System: NCI-H322M lung
Experiment: NCI-60 cell line screen, 48 h

SMILES	TGI [µM]	GI50 [µM]
Cc1ccc(Nc2nc(N)nc3c2ncn3C2OC(CO)C(O)C2O)cc1 (stereo not drawn)	> 100	
O=C(O)CC12C3C4C5C3C1C5C42 (stereo not drawn)	> 100	
O=C1c2ccccc2C2(O)NC(=S)N(c3ccccc3)C12O (stereo not drawn)	> 100	
COc1cc(C=Nc2ccc(C(C)C)cc2)cc(OC)c1OC	> 100	
COc1ccc(-c2ccc(-c3ccc(C(=N)N)s3)s2)cc1Cl	3.04	1.66
COc1ccc2c(c1)OC1=C(C(=O)OC1)C2c1cc(OC)c(OC)c(OC)c1 (stereo not drawn)	> 100	1.27
O=c1[nH]nc(Cc2ccccc2)n1/N=C/c1ccccc1Cl	> 100	
COc1ccc2c(c1)N=C1CSC(c3cccc(Br)c3)N1C2 (stereo not drawn)	40.1	
C=CCC(C(=O)O)c1ccccc1 (stereo not drawn)	> 100	
CN1CCCCCC(=N\O)/C(=N/O)CCCCC1	> 100	
CC1=NN(C(=O)c2ccccc2O)C(=O)/C1=C/c1ccccc1O	> 70.6	
NC(=N\N=C/c1cccc([N+](=O)[O-])c1)/C(N)=N\N=C/c1cccc([N+](=O)[O-])c1	> 100	> 100
COc1cc2c(cc1OCCCCCCN1CCN(c3ncnc4ccccc34)CC1)N=CC1CCCN1C2=O (stereo not drawn)	0.679	0.238
COc1ccc(C2=C(c3ccc(OC)c(OC)c3)C(=O)OC2)cc1	> 93.3	0.208
CCn1c(O)c(C=N)c(=O)n(CC)c1=O	> 100	
COc1c2ccccc2c(OC)c2nc(C)ccc12	> 100	
Cc1cc(N2CCCC2)nc(NC2CCCC(Nc3ccnc4cc(Cl)ccc34)C2)n1 (stereo not drawn)	2.64	0.762
